Laboratory results from the RNAGym collection of RNA variant scans (doi:10.1101/gad.245936.114).
This sample is rich in variants without activity.

B1: tRNA (parent)
chain: CUCUCGGUAGCCAAGUUGGUUUAAGGCGCAAGACUUUAAUUUAUCACUACGAAAUCUUGAGAUCGGGCGUUCGACUCGCCCCCGGGAGAUUUUUUCCUCGAGCAA

Variants of: B1
Assay: nonsense suppression (GFP-seq) (ratio to wild type); higher = more function; SUP4oc tRNA, yeast GFP reporter sort-seq
How it was run: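 To measure nonsense suppression, tRNA variants from a library carrying ~3% random mutations were integrated into the yeast genome alongside RFP and a GFP ochre reporter under galactose control. Growth took place in raffinose/galactose medium supplemented with 80 mg/L adenine, followed by sorting into GFP/RFP bins and Illumina sequencing of each bin (phred ≥30). For each variant with ≥100 reads and ≥30 cells, the bin median GFP/RFP values were weighted by its estimated cell share per bin and referenced to the unmutated parent tRNA.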

U17C A33G C64A G88A and U17C A33U G61C G73U cannot be ordered by nonsense suppression: at most 0.026 for the first, at most 0.026 for the second.

First: U17C A54G A74G
Second: U17C A60C
The nonsense suppression of the first is lower: at most 0.026 for the first, 0.196 for the second.

Compared with U17C A60C G67U, U17C A62C is higher in nonsense suppression: at most 0.026 for the first, 0.734 for the second.

U17C A74G C79U and U17C C27G U63C G69A U71A G73C cannot be ordered by nonsense suppression: at most 0.026 for the first, at most 0.026 for the second.

U17C C27G U71A and U17C C29A G65A C72U C77U cannot be ordered by nonsense suppression: at most 0.026 for the first, at most 0.026 for the second.

U17C C29G C34A G61A G65A and U17C C34A G67C G86U cannot be ordered by nonsense suppression: at most 0.026 for the first, at most 0.026 for the second.

U17C C34G C68A C82G and U17C C34G U70C cannot be ordered by nonsense suppression: at most 0.026 for the first, at most 0.026 for the second.

U17C C64A C72A and U17C C64G C72A C81A G84C cannot be ordered by nonsense suppression: at most 0.026 for the first, at most 0.026 for the second.

U17C C64G G69U and U17C C77A C81G G86A cannot be ordered by nonsense suppression: at most 0.026 for the first, at most 0.026 for the second.

U17C C81U and U17C G18A A89C cannot be ordered by nonsense suppression: at most 0.026 for the first, at most 0.026 for the second.

U17C G19A C27G and U17C G19A G78C cannot be ordered by nonsense suppression: at most 0.026 for the first, at most 0.026 for the second.

U17C G19C U35G C64U G88A and U17C G25C C80U cannot be ordered by nonsense suppression: at most 0.026 for the first, at most 0.026 for the second.

U17C G25C G65C and U17C G25U cannot be ordered by nonsense suppression: at most 0.026 for the first, at most 0.026 for the second.

U17C G26A U71C and U17C G26C cannot be ordered by nonsense suppression: at most 0.026 for the first, at most 0.026 for the second.

U17C G26U C34A U76C and U17C G26U G85U cannot be ordered by nonsense suppression: at most 0.026 for the first, at most 0.026 for the second.

First: U17C G28A C64U G86U
Second: U17C G28A G61C
The nonsense suppression of the first is lower: at most 0.026 for the first, 0.716 for the second.

U17C G32C and U17C G32C C72G cannot be ordered by nonsense suppression: at most 0.026 for the first, at most 0.026 for the second.

U17C G32C C72U and U17C G32U G84U cannot be ordered by nonsense suppression: at most 0.026 for the first, at most 0.026 for the second.

U17C G59U and U17C G61A C83G cannot be ordered by nonsense suppression: at most 0.026 for the first, at most 0.026 for the second.

Going from U17C G61C to U17C G61U A62U, the nonsense suppression falls from 0.769 to at most 0.026.

Compared with U17C G69A U70C G78U C83A, U17C G73A is higher in nonsense suppression: at most 0.026 for the first, 0.899 for the second.

First: U17C G78C C82U
Second: U17C G84A
The nonsense suppression of the first is lower: at most 0.026 for the first, 0.048 for the second.

U17C G85C and U17C G86U cannot be ordered by nonsense suppression: at most 0.026 for the first, at most 0.026 for the second.

U17C G88C and U17C G88U cannot be ordered by nonsense suppression: at most 0.026 for the first, at most 0.026 for the second.

Going from U17C U20G to U17C U20G A24G U55G, the nonsense suppression falls from 1.25 to at most 0.026.

U17C U22G C27U and U17C U35A U58G G78U cannot be ordered by nonsense suppression: at most 0.026 for the first, at most 0.026 for the second.

U17C U35C U76A and U17C U35G G61C U76C cannot be ordered by nonsense suppression: at most 0.026 for the first, at most 0.026 for the second.

U17C U55G and U17C U55G G67C cannot be ordered by nonsense suppression: at most 0.026 for the first, at most 0.026 for the second.

U17C U57A U58G and U17C U58G cannot be ordered by nonsense suppression: at most 0.026 for the first, at most 0.026 for the second.

First: U17C U58G G88U
Second: U17C U63C
The nonsense suppression of the first is lower: at most 0.026 for the first, 1.18 for the second.

U17C U71C and U17C U71C C83A cannot be ordered by nonsense suppression: at most 0.026 for the first, at most 0.026 for the second.

U17G A23C and U17G A23G A30U U35A G61C G78C cannot be ordered by nonsense suppression: at most 0.026 for the first, at most 0.026 for the second.

U17G A23G C34U A74C A89G and U17G A24C G67U cannot be ordered by nonsense suppression: at most 0.026 for the first, at most 0.026 for the second.

Compared with U17G A24U, U17G A24U U58G U63G is lower in nonsense suppression: 0.159 for the first, at most 0.026 for the second.

First: U17G A30U
Second: U17G A30U G67A
The nonsense suppression of the first is higher: 0.0613 for the first, at most 0.026 for the second.

U17G A31C U35G C64A and U17G A31C U71C cannot be ordered by nonsense suppression: at most 0.026 for the first, at most 0.026 for the second.

U17G A31U and U17G A33G C64A cannot be ordered by nonsense suppression: at most 0.026 for the first, at most 0.026 for the second.

U17G A33U U63G C68A U71G and U17G A54G U57C cannot be ordered by nonsense suppression: at most 0.026 for the first, at most 0.026 for the second.

Compared with U17G A54U G61C, U17G A87G is higher in nonsense suppression: 0.162 for the first, 0.752 for the second.

U17G C27A A33C U57G U71A G86A and U17G C27G cannot be ordered by nonsense suppression: at most 0.026 for the first, at most 0.026 for the second.

U17G C27G U71G and U17G C27U cannot be ordered by nonsense suppression: at most 0.026 for the first, at most 0.026 for the second.

U17G C29U C68G and U17G C34U cannot be ordered by nonsense suppression: at most 0.026 for the first, at most 0.026 for the second.

Compared with U17G C64A, U17G C75U A87G is higher in nonsense suppression: 0.0364 for the first, 0.77 for the second.

U17G G18A U21A and U17G G18U A33G G69A cannot be ordered by nonsense suppression: at most 0.026 for the first, at most 0.026 for the second.

Going from U17G G19A to U17G G19A A30C A74U, the nonsense suppression falls from 0.204 to at most 0.026.

U17G G19A G26A and U17G G25A G61A cannot be ordered by nonsense suppression: at most 0.026 for the first, at most 0.026 for the second.

U17G G25C C72A and U17G G26U cannot be ordered by nonsense suppression: at most 0.026 for the first, at most 0.026 for the second.

First: U17G G26U A30G C34A A74U
Second: U17G G28A
The nonsense suppression of the first is lower: at most 0.026 for the first, 1.12 for the second.

U17G G32U U55A U57C U76C and U17G G59U cannot be ordered by nonsense suppression: at most 0.026 for the first, at most 0.026 for the second.

Going from U17G G61A C64U to U17G G61C, the nonsense suppression rises from at most 0.026 to 0.371.

U17G G66U G69A and U17G G66U G73U cannot be ordered by nonsense suppression: at most 0.026 for the first, at most 0.026 for the second.

First: U17G G67A
Second: U17G G67C
The nonsense suppression of the first is higher: 0.0593 for the first, at most 0.026 for the second.

U17G G67C C72G G78C A89C and U17G G69U cannot be ordered by nonsense suppression: at most 0.026 for the first, at most 0.026 for the second.

U17G G85C and U17G G86U cannot be ordered by nonsense suppression: at most 0.026 for the first, at most 0.026 for the second.

U17G G88A and U17G G88U cannot be ordered by nonsense suppression: at most 0.026 for the first, at most 0.026 for the second.

U17G U20A A24C G25A U57C G73U A87U and U17G U20A U22A C82G cannot be ordered by nonsense suppression: at most 0.026 for the first, at most 0.026 for the second.

U17G U20C G26U A87U and U17G U20C G66U cannot be ordered by nonsense suppression: at most 0.026 for the first, at most 0.026 for the second.

Going from U17G U21C to U17G U21G A33U, the nonsense suppression falls from 1.05 to at most 0.026.

Going from U17G U21G G61U to U17G U21G G69C G78U, the nonsense suppression falls from 0.0263 to at most 0.026.

U17G U22C G73C and U17G U35A G67A U76A cannot be ordered by nonsense suppression: at most 0.026 for the first, at most 0.026 for the second.

Going from U17G U55C to U17G U55C U71C, the nonsense suppression falls from 0.0769 to at most 0.026.

U17G U55G C64G U70A A74C and U17G U57C cannot be ordered by nonsense suppression: at most 0.026 for the first, at most 0.026 for the second.

First: U17G U63A C75A G85A
Second: U17G U63C
The nonsense suppression of the first is higher: 1.08 for the first, 0.799 for the second.

U17G U71A and G18A cannot be ordered by nonsense suppression: at most 0.026 for the first, at most 0.026 for the second.

G18A A23G and G18A A23G A31U G32U A89G cannot be ordered by nonsense suppression: at most 0.026 for the first, at most 0.026 for the second.

First: G18A A24C
Second: G18A A30G C79G
The nonsense suppression of the first is higher: 0.0483 for the first, at most 0.026 for the second.

G18A A30G U71G and G18A A31C cannot be ordered by nonsense suppression: at most 0.026 for the first, at most 0.026 for the second.

G18A A31G C34G G78A and G18A A31U U76G cannot be ordered by nonsense suppression: at most 0.026 for the first, at most 0.026 for the second.

G18A A33C A62G C75G and G18A A33G C80U G86C cannot be ordered by nonsense suppression: at most 0.026 for the first, at most 0.026 for the second.

G18A A33G C81U and G18A A33U cannot be ordered by nonsense suppression: at most 0.026 for the first, at most 0.026 for the second.

G18A A54G C77G and G18A A54G U58A cannot be ordered by nonsense suppression: at most 0.026 for the first, at most 0.026 for the second.

G18A A60G G67C and G18A A62C U76C cannot be ordered by nonsense suppression: at most 0.026 for the first, at most 0.026 for the second.

G18A A62G C64A G65A G73U C79U and G18A A74C C81G A89C cannot be ordered by nonsense suppression: at most 0.026 for the first, at most 0.026 for the second.

First: G18A A87G
Second: G18A A89G
The nonsense suppression of the first is higher: 0.036 for the first, at most 0.026 for the second.

G18A C27A and G18A C27G C79A cannot be ordered by nonsense suppression: at most 0.026 for the first, at most 0.026 for the second.

G18A C29A U71G C72U C80A and G18A C56A cannot be ordered by nonsense suppression: at most 0.026 for the first, at most 0.026 for the second.

G18A C56U U63C C68G and G18A C64G C77A cannot be ordered by nonsense suppression: at most 0.026 for the first, at most 0.026 for the second.

G18A C72G C79A G86A and G18A C75A U76C G86A cannot be ordered by nonsense suppression: at most 0.026 for the first, at most 0.026 for the second.

G18A C75U U76G and G18A C83A cannot be ordered by nonsense suppression: at most 0.026 for the first, at most 0.026 for the second.

G18A G19U U22C A60U G66U and G18A G26A C29G U57A cannot be ordered by nonsense suppression: at most 0.026 for the first, at most 0.026 for the second.

G18A G28U U58A A62C A74G and G18A G32A C64G cannot be ordered by nonsense suppression: at most 0.026 for the first, at most 0.026 for the second.

G18A G61C C72U and G18A G61U cannot be ordered by nonsense suppression: at most 0.026 for the first, at most 0.026 for the second.

G18A G65C and G18A G66U C75A cannot be ordered by nonsense suppression: at most 0.026 for the first, at most 0.026 for the second.

With G18A G86C A87G the nonsense suppression was at most 0.026.
